From the supplement of paper PMC10126150
Values marked as one replicate rest on one cluster of the flow cell; about a third of the high ones do not repeat.

Tested on: ATP
Assay: switch fluorescence ratio, 500 uM ATP over buffer (Cy3 cluster intensity, sum of 5 cycles each) (fold (ratio)); higher = stronger signal-on switching upon ATP binding; sequences stand for … in TCGTCGGCAGCGTCAGATGTGTATAAGAGACAGTTTTTTTTTTTTTTTTTTTTTTTTT…TC
Conditions: aptamer strand: ATP DNA aptamer (quencher-CACCTGGGGGAGTATTGCGGAGGAAGG + anchor), 100 nM annealed; ATP concentration: 500 uM; one replicate
Summary of the method: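 Values give the fluorescence ratio for each switch-domain sequence, averaged from per-cluster ratios of summed target-cycle to summed buffer-cycle Cy3 intensity. The Cy3-labelled switching-strand clusters sat on a modified Illumina MiSeq flow-cell, were annealed to 100 nM quencher-labelled ATP aptamer, and were imaged in selection buffer, then after 15 min with 500 uM ATP at 22 °C. Five cycles ran with NaOH stripping and re-annealing between them, and clusters outside 100-1000 RFU were excluded.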
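Also: ATP exposure 15 min at 22 °C before imaging.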

Sequence	switch fluorescence ratio
CTGCGTGGAT	1.03
CAAACTCTT	1
ACTTTGTTTC	0.972
AGGGCAACGG	1.05
CAAGCGTAAA	1
GCATGCAGTG	1
GGTCATATCA	1.03
ATTCCTCATT	1.02
GAGGGAGTGT	1.02
AAGAACCGAC	2.46
CCATCCAGCC	1.39
TGCGTTGTTC	1.03
GGTTGGTTAA	0.978
TAAGAGTTG	0.963
ACTACTGTCA	1.04
AAGCCTGGCA	1.04
GGAGGAAGCA	2.18
GCAAGGCTGT	0.995
ATCTGTCGCA	0.966
TAAGATGAAC	0.967
CTTAGGATCC	0.967
ACGTGTCGTC	0.958
AGCGATAGAG	1.05

Sequence	switch fluorescence ratio
GGGTACATAT	1.07
ACTGAATT	0.988
GTTTTTTCCC	1.02
GTCGTTTTCG	1.04
TAAACCTTCT	3.4
AACGACAGAT	1.01
TTGGACGCGT	1.03
TTATATAACG	1.02
GCAGTGCACA	1.02
TAGGCTGGAA	0.997
GGTATGGACT	1.04
CGTTTAGAA	1.03
GGAACCGTAA	1.4
CCCTAAGATG	1.04
CTTAAGCCTT	1.09
GCTTCCCTAT	1.08
CCTCACTGAA	1.21
TATCGCACGG	1.29
TTTCAGAGGT	0.983
AAGACTAATT	0.995
CGGCCATCTG	0.989
TTCAGTCACG	1.01
GCCTGATTCC	1.11

Sequence	switch fluorescence ratio
TATTTGTCTA	1
TTGTAGTAGT	1.3
TCGAGGGGCA	1.01
GTGGGTTCAC	0.963
AGGGGCAAGT	0.96
AATTTAATAC	1.08
ATGAACGCTT	1.05
TTCTATGTAG	1.01
ACCCTTAGCA	1.09
GTCGTTAGTA	0.975
AGGCTTTATC	0.97
GCGTACAGGC	0.957
AGTCGGATCG	0.974
ATGGTGGGTA	0.976
CTATATCCAC	1.07
TAATGGGCAA	1.06
ATCGTCCT	1.04
AGTCATGGTC	1.02
CACGATCGTG	0.984
ATCGAACTT	1
TGTAATGTTT	0.982
CGACACTCTG	1.04
AGGGTTGGC	1.05

Sequence	switch fluorescence ratio
CACCTGTGCA	1.02
CCATCTTTTA	1
ACTTTGCGCT	1.05
TCAAGTGCGC	0.934
AAACCTAAGG	1.04
AGCGAATTT	1
AACATGAAGA	1.01
ATTGATTTCG	1.01
TTCCAACATC	1.12
GGGACGTAAT	1
GGATCGCCGT	0.94
GCCCAGAACA	0.993
AAGATCA	1
GCAGTATTAG	1
CGATGTTTTA	0.976
GAACTTTCCT	2.08
GCTCCCAAAA	1.11
GCTGGCGGCC	1
ATTGTCATTA	0.973
AAGGTACTCT	1.15
GTGTACCGGT	0.968
TAACGTG	0.934
GGGTAGCGTA	0.993

Sequence	switch fluorescence ratio
TGCATTAGCA	1
CTAACGTTGT	1.01
AGGTTAACTT	0.99
CCATAAGTAG	1.02
TAGCAGACTT	1.01
GTGGACATCT	1.07
GATCGAAACC	1.08
AAGAATTGAC	1.22
TCATGAGTTA	1
TGGGGACAAC	0.953
GAGAATCTTA	0.996
AAAGAGTAAG	0.967
TCACCTATTG	1.01
GGAATTTCAG	1.04
ATGGTTTCCG	1
GTGAGGCTTA	1.01
TATGAGTCCC	0.969
GCTCATTG	0.982
GACCGTTCCT	1.24
CAAAGGGG	1.07
TAACTCGTG	0.985
ACCATTGGGC	0.959
ATTCGAAGGC	1

Sequence	switch fluorescence ratio
GAAACTGGAT	0.979
GATGACCAGA	0.982
ACCACCGGCT	1.02
CTCGGGAAAT	0.999
CAAGAACGGG	1.01
CTCGAGAAGG	1
ATTACTGAAC	1.19
TGGGATGTAA	1.03
ATAAGTGAGG	0.973
TTATTTCCTT	1
GCCAAGTTTT	0.992
CTCTTTTAGT	1
AATTAGGCTT	0.989
GGGGGAACTG	0.961
TTCGTCGGAC	1.09
GCAAGGATGG	1
CTGGACAGGG	0.987
TGAAGCATGG	1.26
CGGTATGGAC	0.982
TCACAGGCGA	1.03
GCAAATGGTC	1.09
CATTAACCAA	0.969
GTTGTTGTAA	0.965

Sequence	switch fluorescence ratio
CTCGGGGCTC	1.06
GAACTTTGAT	0.979
AAAACATAAA	1.07
TGACCCAAGA	1.02
CAGTCTGTTT	0.976
GCGGGGCAAT	1.03
CGCACTGAGC	1.19
CTTTAGCGCG	0.976
GCAGGTGGGA	1.01
GGGAACGTGC	1.08
ACTGGTACCG	1.06
TATGTGGGTT	0.95
CTTAGTTGA	0.99
GCATAACGTG	1.02
AATGGGCGTT	0.977
GGGGATTCAG	1.03
ACTGGTGATG	1
GCATGTGCTA	1.01
TATGGGCAA	1.06
TATCGTGTC	0.934
